In PubChem BioAssay AID1508624 (National Center for Advancing Translational Sciences (NCATS), 2021):
The campaign covered roughly 48,000 compounds. About 120 (0.25%) were called active. Roughly 4% stayed inconclusive and do not appear here. The call rests on the fitted dose curve; in most records, active means well fitted activation curve with a large enough effect; inconclusive means small, poorly fitted or top-dose-only effect, or another doubt; inactive means no such curve, though single readings can be large or run the other way. The list shows a part of the results.

Test: Primary qHTS for Identification of Small Molecule Activators of Huntingtin-Antisense Promoter Activity; further: nearly all actives have a fitted effect of over 55% in size
Details: HEK293 HTT-AS promoter firefly luciferase reporter, 24 h; series mostly up to 57.5 µM; activity change, positive = activation: at the top concentration
How it was run: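 Firefly luciferase readout (Dual-Glo, 10 min RT) after 24 h, 37 °C compound exposure (final up to 57.5 uM) of HEK293 reporter cells cultured 24 h beforehand; PTC124 at 50 uM final as control inhibitor; activity scaled vehicle 0%, zero RLU -100%.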

Activity change, positive = activation, inactive:
CCc1nnc(SCc2ccc(F)cc2Cl)c2cc3sccc3n12 -2.43%
Cc1ccc(C)c(NC(=O)C(C)n2c(=O)cc(C(F)(F)F)c3c(C)nn(C)c32)c1 (stereo not drawn) -7.32%
CCc1ccc(CNC(=O)c2ccc3c(c2)nc2n3CCOC2)cc1 -7.66%
CCOc1ccc(Nc2oc(/C=C/c3ccc(F)cc3)nc2C#N)cc1 4.81%
COc1ccc(CNc2nc3c(S(=O)(=O)c4ccccc4)nnn3c3ccc(Cl)cc23)cc1 13.4%
Cc1ccc(NC(=O)C(=O)NCC(c2cccnc2)N2CCN(C)CC2)cc1C (stereo not drawn) -12.9%
Cc1ccc(OCC(=O)Nc2ccc(C(=O)OCc3cc(=O)n4nc(C5CC5)sc4n3)cc2)cc1 -22.3%
COc1ccc(NC(=O)c2oc3c(c2C)-c2nn(Cc4c(F)cccc4Cl)cc2CC3)c(OC)c1 -15.9%
CCc1ccc(NC(=O)c2cc3ccccn3n2)cc1 28.5% [at 11.5 µM, percent change from vehicle, -100% = no light]
O=C(CSc1nc(=O)[nH]c2c1CCCC2)Nc1cc(C(F)(F)F)ccc1Cl -41.1%
Fc1ccccc1CNCCCSc1nnnn1-c1ccccc1 -3%
Cc1cc(C)c2c(CC(=O)Nc3nnc(C(C)C)s3)coc2c1 -11.4%
CCOC(=O)c1ccccc1NC(=O)CSc1ccc(-c2sc(-c3ccccc3)nc2C)nn1 -6.05%
Cc1cc(C)n(-c2nc3ccccc3nc2Nc2cccc(C(F)(F)F)c2)n1 3.87%
COc1ccc(OC)c(-c2nc(Nc3ccccc3C)sc2CC(=O)O)c1 -23.1%
COc1ccc(C2C(C(=O)Nc3ccccc3)=C(C)Nc3nc(-c4ccccc4)nn32)cc1OC (stereo not drawn) -27.1%
O=C1CCSC2(C(=O)N(Cc3ccc(F)cc3)c3ccccc32)N1c1ccccc1 (stereo not drawn) -31.5%
COc1ccc(Nc2nnc(-c3ccc(C)c(S(=O)(=O)NCc4nc5ccccc5[nH]4)c3)c3ccccc23)cc1 -36.3%
CCC(C)Sc1oc(-c2ccco2)nc1S(=O)(=O)c1ccc(Cl)cc1 (stereo not drawn) -6.39%
Cc1ccc(NC(=O)Cn2nnc(C(=O)NCCc3ccccc3)c2N)cc1 -15.7%
Clc1ccc(-c2csc(-c3nc(-c4ccc(Br)s4)cs3)n2)cc1 -6.19%
O=C(NCc1ccc(Cl)cc1)c1ccc2c(c1)NC(=O)C(CS(=O)(=O)Cc1ccc(F)cc1Cl)N2 (stereo not drawn) -27.4%
CCc1ccc(NC(=O)C2CCCN(S(=O)(=O)c3cccc4nsnc34)C2)cc1 (stereo not drawn) -23.5%
Cc1ccc(-c2nc(NC(=O)CSc3ccc4ccccc4n3)ns2)cc1 -0.233%
Cc1ccccc1NC(=O)c1nc(S(C)(=O)=O)ncc1N(Cc1ccco1)Cc1sccc1C -22.8%
Cc1ccccc1OCC(=O)Nc1ccc(C(=O)OCc2cc(=O)n3ccsc3n2)cc1 7.39%
CCN(C(=O)CCc1nc(-c2ccc(C)cc2)no1)c1cccc(Cl)c1 -10.8%
COc1cc2c(cc1OC)C(COc1ccc3c(C)cc(=O)oc3c1)N(C(=O)Cc1ccccc1)CC2 (stereo not drawn) 0%
COC(=O)c1cc2sccc2n1CC(=O)Nc1ccc(C)cc1C 8.45%
Cc1cc(C)c(Cn2c3ccccc3c3cnn(CC(=O)NCCC4=CCCCC4)c(=O)c32)c(C)c1 -3.93%
COc1cccc(CNC(=O)c2ccc3nc(-c4ccccc4)c(-c4ccccc4)nc3c2)c1OC 4.16%
CCOc1ccccc1C(=O)NC1(C(F)(F)F)C(=O)Nc2c1c(=O)[nH]c(=O)n2-c1ccccc1 (stereo not drawn) -3.75%
Cc1ccc(S(=O)(=O)c2cn(Cc3ccccc3)c3cc(N4CCCC4)c(F)cc3c2=O)cc1 -8.18%
CCc1nnc(SCc2nc(-c3cccc(Cl)c3)oc2C)c2cc3sc(C)cc3n12 2.74%
COc1cc(OC)c(NS(=O)(=O)c2cc3c(cc2C)N(C(C)=O)CCO3)cc1Cl -23.7%
COc1ccccc1NC(=O)CN(c1cc(C)cc(C)c1)S(=O)(=O)c1c(C)[nH]c(=O)[nH]c1=O -5.31%
NC(=O)c1c(NC(=O)c2cc(-c3ccc(F)cc3)on2)sc2c1CCCC2 -10.5%
Cc1cccc(NC(=O)Cn2nnc(C(=O)NCc3cccs3)c2N)c1 -13.7%
CCC(C(=O)Nc1ccc(C(C)C)cc1)n1nc(C)n2c(cc3cc(C)ccc32)c1=O (stereo not drawn) -6.12%
CN(C)c1ccc(CNC(=O)C2CCCN(S(=O)(=O)c3ccc4c(c3)CCCC(=O)N4)C2)cc1 (stereo not drawn) -40.4%
COc1ccc(Cl)cc1NC(=O)CCn1c(=O)c2cccn2c2ccccc21 -20.7%
Cc1ccc(C)c(Cn2c(=O)cc(C(F)(F)F)c3c(C)nn(C)c32)c1 -16.3%
Cc1ccccc1C(=O)NCc1nc(-c2ccc(Cl)cc2)no1 -26.2%
Cc1ccc(NC(=O)c2c(C)nc3sc(C(=O)Nc4ccc(F)cc4)c(N)c3c2-c2ccc(Cl)cc2)c(C)c1 0%
COc1cccc(NC(=O)CCc2nnc3n(Cc4ccccc4Cl)c(=O)c4ccccc4n23)c1 4.32%
CCOC(=O)C(O)c1ccccc1 (stereo not drawn) 0.678%
Cc1cccc(CN2C(=O)c3ccccc3S(=O)(=O)c3ccc(C(=O)N(C)Cc4ccccc4)cc32)c1 -31.7%
O=C1CC(c2nnc(Cc3c(F)cccc3Cl)o2)CN1c1ccccc1 (stereo not drawn) -16.3%
Cc1ccc(Nc2c(-c3ccc(N4CCOCC4)cc3)nc3cccc(C)n23)cc1 0.0036%
CCOc1ccccc1C(=O)Nc1ccc(-n2nncc2-c2ccccc2)cc1 -24.7%
CCOC(=O)c1ccc(NC2(c3ccccc3)C(=O)c3ccccc3C2=O)cc1 -1.83%
COc1ccccc1C(=O)Nc1nnc(S(=O)(=O)N2CCN(c3ccc(F)cc3)CC2)s1 -8.31%
CCOC(=O)N1CCc2c(sc(NCc3cccc(F)c3)c2C(=O)Nc2ccc(OC)cc2)C1 -26.2%
Cc1ccc(CNc2nc3ccc(Cl)cc3n3nnnc23)cc1 7.62%
COc1ccc(-n2cc(-c3ccccc3)nc2SCC(=O)Nc2ccccc2C)cc1 -16.7%
COc1cc(NC(=O)CCn2c(=O)oc3ccccc32)cc(OC)c1OC -15.2%
COC(=O)CC1Oc2ccc(F)cc2-n2cc(-c3ccc(C)cc3)nc21 (stereo not drawn) -34.9%
Cc1cc(-c2ccc(C)c(S(=O)(=O)Nc3ccccn3)c2)on1 -7.09%
COc1cc(OC)c(NS(=O)(=O)c2c(C(=O)N3CCCCCC3)c(C)n(C)c2C)cc1Cl -10.9%
COc1ccc(N(Cc2cccs2)C(=O)COc2cccc(C)c2C)cc1 -37.2%
CCN1CCN(c2ncc3c(n2)CCN(CC(C)C)C3)CC1 -13.2%
CCOc1ccc(-n2ccnc2SCC(=O)Nc2cccc3ccccc23)cc1 -14.2%
Cc1cccc(CC(=O)N2CC(=O)Nc3ccc(C)cc3C2c2ccc(F)cc2)c1 (stereo not drawn) -20.7%
COc1ccc(Br)cc1CNC(=O)c1ccc2nc(C(C)C)oc2c1 -19.6%
CCOc1ccc2oc(=O)cc(CN3CCN(Cc4ccc(C)cc4)CC3)c2c1 -14.7%
Cc1ccc(Nc2c3c(nc4nc(-c5cccs5)nn24)CCCC3)cc1F -14.3%
COc1ccc(N2C(=O)CSC23C(=O)N(Cc2cccc(C(F)(F)F)c2)c2ccccc23)cc1 (stereo not drawn) -38.8%
Cc1oc(-c2ccc(Cl)cc2)nc1CS(=O)CC(=O)NCCc1ccccc1 (stereo not drawn) -3.53%
CCN(CC)CC(=O)OCC(=O)[C@@]1(O)CC[C@H]2[C@@H]3CCC4=CC(=O)CC[C@]4(C)[C@H]3[C@@H](O)C[C@@]21C -3.58%
Cc1ccc(S(=O)(=O)c2nc(-c3cccs3)oc2SCC(=O)Nc2cc(C)cc(C)c2)cc1 -26.4%
COc1ccccc1OCC(=O)N(Cc1cccs1)C1CCS(=O)(=O)C1 (stereo not drawn) 2.29%
CCOC(=O)Cn1nc(C)c(NC(=O)COc2ccccc2)c1C -4.27%
COc1ccc(S(=O)(=O)NC(C)(C)C)cc1-c1nnc2c3ccccc3c(C)nn12 -9.63%
Cc1cccc(Cn2c(=O)n(CCCC(=O)NCc3ccccc3Cl)c(=O)c3ccccc32)c1 -49.6%
COc1ccccc1CNc1nc(-c2ccco2)nn1S(C)(=O)=O 16.2%
COCCNc1nc2c(c(=O)n(Cc3cccc(Cl)c3)c(=O)n2C)n1C -4%
Cc1ccc(NC(=O)C2CCC(CNS(=O)(=O)c3ccc4c(c3)CCCC(=O)N4)CC2)cc1F (stereo not drawn) -24.4%
COc1ccc2c(c1)c1c(c(=O)n(Cc3ccccc3)c(=O)n1Cc1ccccc1Cl)n2C -8.06%
CS(=O)(=O)N1CCc2c(-c3cnc(N)nc3)nc(N3CCOCC3)nc21 -5.55%
CCc1ccc(NC(=O)C2=C(C)C(=O)OC23CCCCC3)cc1 -17.2%
COc1ccc(OCC(=O)Nc2c(C(=O)N3CCN(c4ccccc4)CC3)oc3ccccc23)cc1 -6.07%
CCOC(=O)c1c(-c2ccc(OC)c(OC)c2)csc1NC(=O)c1ccc(C)cc1 -4.22%
CCCCN1CCCc2cc(CN(CCCN3CCOCC3)C(=O)Nc3ccc(CC)cc3)ccc21 -29.8%
O=C(O)c1cccc(NC(=O)c2cc3cc(Br)cc(Br)c3oc2=O)c1 -4.06%
O=C(NCc1ccc(F)cc1)c1cc2cccc3c2n1CCS3 -21.7%
COc1ccc(S(=O)(=O)N(CC(=O)NCCSc2ccccc2)c2ccc(C)cc2)cc1 29.8% [at 11.5 µM, percent change from vehicle, -100% = no light]
CC(=O)c1cccc(NC(=O)Cc2ccc(NC(=O)N3CCCCc4ccccc43)cc2)c1 -16.2%
COC(=O)c1ccc(NC(=O)C(=O)NCC(c2cccnc2)N2CCN(c3ccccc3)CC2)cc1 (stereo not drawn) -21.1%
COc1ccc(S(=O)(=O)NCCc2sc3nc(-c4ccc(C)cc4)nn3c2C)cc1C -24.2%
CCOC(=O)c1cc(-c2ccccc2)n(CCC(=O)NCCc2cccc(C)c2)c1C -29.7%
COc1ccccc1CNC(=O)CCCCn1c(=O)c2ccccc2n(CC(=O)Nc2c(C)cc(C)cc2C)c1=O -9.16%
CCOc1ccccc1CNC(=O)CCC(=O)N1CCSc2ccccc21 -27.6%
COc1ccccc1Cc1nc2ccccc2nc1SCC(=O)Nc1ccc2c(c1)OCO2 -3.9%
